# Source: PubChem BioAssay (NCATS)
# Several values for one entry are separate records, joined by “and”; a condition that tells them apart may be missing. Equal values may be shown once. The list shows a part of the results. These are further read-outs of the screen, such as a control signal, another cell line or another target. No call is given for them. Most of these compounds were active or inconclusive in the main read-out, so they are no random draw. For some of these results: The note in brackets gives the kind of curve behind each potency; many fits are weak.
# Assays:
# [1] = qHTS Assay for Lipid Storage Modulators (AID 1519); settings: Drosophila S3 cells, BODIPY lipid droplet/cell ratio, laser cytometry, cells loaded with oleic acid
# Procedure, shortened: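 Cells seeded at 5,000 per well were treated with compounds over a concentration series and loaded with oleic acid (400 uM, as added). Lipid droplet fluorescence (488 nm excitation, 500-530 nm channel) was read by laser-scanning cytometry and normalized to 20 uM Triacsin C.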
# [2] = qHTS Validation Assay to Find Inhibitors of Chronic Active B-Cell Receptor Signaling (AID 485345); settings: ABC-DLBCL cells, chronic BCR signaling reporter
# Procedure, shortened: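 TMD8 ABC-DLBCL cells stably carrying doxycycline-inducible IkappaBalpha–green luciferase fusion plus unfused red luciferase; compounds 46 uM to 3 nM, 4 h at 37C with doxycycline. Corrected green/red luminescence ratio normalized to 10 uM MG-132 and basal cell wells; curves fitted.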
# [3] = qHTS Assay for Inhibitors of PDE-IV (AID 607); settings: HEK293 ACTOne CNG channel cells, membrane potential fluorescence; measured here: parental cell counter-screen;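 further: parental cells stimulated with forskolin 10 µM plus RO 20-1724 100 µM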
# Procedure, shortened: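 ACTOne HEK293 cells carry a modified cAMP-gated CNG channel and express endogenous PDE4; plated 1000 cells/well, compounds up to 22.9 uM final. Membrane-potential dye fluorescence (ex 535/em 590) was read; parental cells received 10 uM forskolin + 100 uM RO 20-1724.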
# [4] = qHTS Assay for Modulators of Human Peripheral Myelin Protein 22 (PMP22) Expression/Activity (AID 1967); settings: Cell-based PMP22 reporter, dual-color luciferase ratio
# Procedure, shortened: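 Mouse MSC80 Schwann cells carrying Pmp22 promoter–green click beetle luciferase plus EF-alpha–red luciferase control, dosed 24 h at 37 °C. Dual-filter luminescence, overlap-corrected; %Activity from green/red ratio normalised to untreated cells, concentration-response curves fitted.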
# [5] = Nrf2 qHTS screen for inhibitors: Validation (AID 493153); settings: A549 ARE-Fluc reporter, 18-24 h; AC50: CellTiter-Fluor fluorescence read, measured here: cytotoxicity CellTiter-Fluor AC50; viability change: measured here: cytotoxicity max response
# Procedure, shortened: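 Luminescence from an ARE-firefly luciferase reporter in A549 cells gives Nrf2 inhibition; an earlier CellTiter-Fluor fluorescent read flags cytotoxicity. Cells in 5% FBS OPTI-MEM received compound dilution series for 18-24 h at 37°C.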
# [6] = qHTS assay for small molecule antagonists of androgen receptor signaling (AID 588516); settings: AR-UAS-bla HEK293, beta-lactamase ratio, antagonist mode, 16 h
# Procedure, shortened: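 Antagonist mode: inhibition of R1881-stimulated (10 nM final) bla reporter in GeneBLAzer AR HEK 293 cells, 16 h at 37C, compounds titrated. IC50 and efficacy from Hill-equation fits of 405/460–530 nm FRET ratios.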
# [7] = qHTS assay for small molecule antagonists of glucocorticoid receptor signaling (AID 588533); settings: HeLa MMTV-bla, GRE beta-lactamase ratio, antagonist mode, 18 h; measured here: W530 channel AC50;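 further: cells stimulated with 2 nM dexamethasone as agonist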
# [8] = qHTS assay for small molecule antagonists of peroxisome proliferator-activated receptor delta signaling (AID 588535); settings: HEK293T PPARd-UAS-bla, beta-lactamase FRET ratio, 18 h; 460 nm channel;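 further: cells co-treated with a PPAR-delta agonist as stimulator during compound exposure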
# Procedure, shortened: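 Antagonist-mode beta-lactamase reporter (GeneBLAzer PPAR-delta-UAS-bla) in HEK293T cells, 2% charcoal/dextran FBS, 4000 cells/well. Compound titrations, 18 h at 37 C; CCF4 ratio read, IC50 and efficacy from Hill fits.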
# [9] = qHTS assay for small molecule antagonists of vitamin D receptor signaling (AID 588541); settings: HEK293T VDR-UAS-bla, beta-lactamase ratio, antagonist mode; measured here: W460 blue channel (cell viability)
# [10] = qHTS assay for small molecule agonists of retinoid X receptor alpha signaling (AID 588544); settings: HEK293T RXRa-UAS-bla, beta-lactamase reporter, 18 h; 530 nm emission
# [11] = qHTS assay for small molecule antagonists of retinoid X receptor alpha signaling (AID 588546); settings: HEK293T RXRa-UAS-bla, beta-lactamase ratio, antagonist mode; measured here: W530 green channel, cytotoxicity proxy;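 further: cells stimulated with 9-cis-retinoic acid as agonist; on the % scale 0 is the no-effect control and ±100 the full control effect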
# Procedure, shortened: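 Beta-lactamase reporter inhibition, read as CCF4 fluorescence ratio (ex 405, em 460/530 nm) after 2 h at RT. HEK293T UAS-bla cells, 2500/well, were stimulated with 9-cis-RA at 500 or 100 nM final alongside test compound for 18 h at 37 C.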
# [12] = qHTS assay for small molecule antagonists of peroxisome proliferator-activated receptor gamma signaling (AID 588537); settings: HEK293 PPARg-UAS-bla, beta-lactamase ratio, antagonist mode; measured here: W460 blue channel
# Procedure, shortened: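 PPARγ-UAS-bla HEK293 cells (3000/well) in 1% charcoal/dextran-stripped FBS are treated with compound, then stimulated with 50 nM rosiglitazone for 16 h at 37 °C. Read-out is CCF4 β-lactamase fluorescence after 2 h at RT. IC50 comes from Hill fits normalised to rosiglitazone and DMSO.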
# [13] = measured here: cell count channel max response
# [14] = measured here: cell number channel AC50
# [15] = measured here: lipid (BODIPY) channel AC50
# [16] = measured here: lipid channel max response
# [17] = measured here: CBR control luciferase (viability counter)
# [18] = measured here: green reporter channel AC50, mouse Pmp22 promoter in mouse Schwann cells
# [19] = measured here: red reporter channel AC50, EF-alpha promoter control reporter in MSC80 mouse Schwann cells
# [20] = measured here: CBG/CBR ratio read-out
# Tags describe the fitted curve by direction and shape.
structure (smiles),measurement,setting,value
N=C(N)SCCN,max response,[1]; [13],66%
same,AC50,[1]; [14],"39.8 µM [rising, partial curve, poor fit]"
same,AC50,[1]; [15],"39.8 µM [rising, partial curve, poor fit]"
same,max response,[1]; [16],67.1%
same,AC50,[2]; [17],"0.0164 µM [rising, full curve, poor fit]"
CCCCCCN(CCCCCC)C(=O)Cc1c(-c2ccc(F)cc2)[nH]c2ccccc12,AC50,[3],"12.6 µM [rising, partial curve, poor fit] and 3.16 µM [rising, full curve]"
same,max response,[1]; [13],83.2% and 57.1%
same,AC50,[1]; [14],"3.55 µM [rising, full curve]"
same,AC50,[1]; [15],"2.51 µM [rising, full curve]"
same,max response,[1]; [16],90.2% and 54.5%
same,AC50,[4]; [18],"33.8 µM [falling, full curve]"
same,AC50,[4]; [19],"26.9 µM [falling, full curve]"
same,viability change,[5],-6.96%
O=c1cc(-c2ccccc2)oc2cc(O)cc(O)c12,max response,[1]; [13],111%
same,AC50,[1]; [14],"35.5 µM [rising, partial curve]"
same,AC50,[1]; [15],"31.6 µM [rising, partial curve, poor fit]"
same,max response,[1]; [16],126%
same,AC50,[6]; measured here: W460 blue channel fit,"8.91 µM [rising, full curve, poor fit]"
same,AC50,"[6]; measured here: W530 green channel, cytotoxicity/artifact","15.8 µM [rising, full curve, poor fit]"
same,AC50,[7],"12.6 µM [falling, full curve, poor fit]"
same,max response,[8],36.7%
same,AC50,[9],"7.94 µM [rising, partial curve, poor fit]"
same,max response,[10],76.8%
same,max response,[11],37.6%
C#CCN(C)CCCOc1ccc(Cl)cc1Cl,max response,[1]; [13],4.31%
same,AC50,[1]; [14],"11.2 µM [falling, partial curve, poor fit]"
same,AC50,[1]; [15],"11.2 µM [falling, partial curve, poor fit]"
same,max response,[1]; [16],3.96%
same,AC50,[2]; [17],"1.03 µM [rising, partial curve]"
c1cnc2c(c1)ccc1cccnc12,max response,[1]; [13],43.7%
same,AC50,[1]; [14],"39.8 µM [rising, single point]"
same,AC50,[1]; [15],"39.8 µM [rising, single point]"
same,max response,[1]; [16],45.7%
same,AC50,[4]; [19],"9.53 µM [falling, full curve]"
same,AC50,[5],"8.2 µM [falling, partial curve]"
same,viability change,[5],-41.9%
same,AC50,[7],"10 µM [rising, full curve, poor fit]"
same,AC50,[12],"2.51 µM [falling, full curve]"
same,max response,[10],16.6%
same,max response,[11],-2.23%
COc1ccc(/C=C/C(=O)Nc2ccccc2C(=O)O)cc1OC,max response,[1]; [13],57.1%
same,AC50,[1]; [14],"44.7 µM [rising, partial curve, poor fit]"
same,AC50,[1]; [15],"44.7 µM [rising, partial curve, poor fit]"
same,max response,[1]; [16],57.8%
same,AC50,[4]; [19],"7.57 µM [falling, full curve]"
same,AC50,[2]; [20],"4.11 µM [falling, partial curve]"
same,AC50,[2]; [17],"2.06 µM [falling, full curve]"
same,viability change,[5],-0.88%
Clc1ccc2c(c1)N=C(N1CCNCC1)c1ccccc1N2,max response,[1]; [13],59.1%
same,AC50,[1]; [14],"25.1 µM [rising, partial curve]"
same,AC50,[1]; [15],"28.2 µM [rising, partial curve]"
same,max response,[1]; [16],80.6%
same,AC50,[2]; [20],"18.4 µM [falling, single point]"
CC(C)Cn1c(=O)n(C)c(=O)c2[nH]cnc21,max response,[1]; [13],19.7% and 36.5%
same,AC50,[1]; [14],"0.0224 µM [rising, full curve, poor fit]"
same,AC50,[1]; [15],"39.8 µM [rising, single point] and 39.8 µM [rising, partial curve, poor fit]"
same,max response,[1]; [16],34.7% and 50.9%
same,AC50,[2]; [17],"0.58 µM [falling, partial curve, poor fit]"
CC(C)(C=O)Cc1cc(C(C)(C)C)c(O)c(C(C)(C)C)c1,max response,[1]; [13],16.7% and -75.4%
same,AC50,[1]; [14],"7.94 µM [rising, partial curve, poor fit] and 44.7 µM [falling, partial curve, poor fit]"
same,AC50,[1]; [15],"6.31 µM [rising, full curve, poor fit] and 44.7 µM [falling, partial curve, poor fit]"
same,max response,[1]; [16],6.52% and -75.8%
same,AC50,[2]; [17],"18.4 µM [rising, single point]"
FC(F)(F)c1cc(CO[C@H]2CCCN[C@H]2c2ccccc2)cc(C(F)(F)F)c1,AC50,[3],"6.31 µM [rising, partial curve]"
same,max response,[1]; [13],62.8% and 60.8%
same,AC50,[1]; [14],"39.8 µM [rising, partial curve, poor fit]"
same,AC50,[1]; [15],"39.8 µM [rising, partial curve, poor fit]"
same,max response,[1]; [16],75% and 61%
same,AC50,[4]; [18],"26.9 µM [falling, full curve]"
same,AC50,[4]; [19],"26.9 µM [falling, full curve]"
